# In PubChem BioAssay AID588855 (National Center for Advancing Translational Sciences (NCATS), 2011):
# About 5,000 (1.2%) of roughly 410,000 compounds were called active. Inconclusive results, whose numbers are uncertain, are shown with a selection of clear calls. Calls come from the whole dose curve; as a rule, active = well fitted inhibition curve with a large enough effect; inconclusive = small, poorly fitted or top-dose-only effect; inactive = no such curve, though single readings can be large or run the other way. Potencies beside an inconclusive call are fits to weak or partial responses and may not hold up.
# Assay: qHTS for Inhibitors of TGF-b; note: nearly all actives have a fitted effect of over 65% in size
# Settings: HepG2 CAGA-GFP TGF-b/SMAD3 reporter, GFP fluorescence, 18 h, TGF-beta stimulated, 500 pg/mL final; series mostly up to 46.1 µM
# In short: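 Smad-responsive CAGA-GFP expression was quantified in HEPG2 cells exposed to compounds and 500 pg/mL final TGF-beta for 18 h at 37 degrees C; unstimulated wells defined full inhibition.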
# Potency is the fitted concentration of half-maximal effect; tags give direction and shape of the fitted curve.
row,Structure (SMILES),Potency
1,CCC(C(=O)NCC1CCCO1)N(Cc1ccccc1)C(=O)CNS(=O)(=O)c1ccccc1 (stereo not given),"inconclusive: 5.62 µM [inhibitor, single point]"
2,COc1ccc(C(=O)Nc2ccc3c(c2)CCCN3S(=O)(=O)c2ccc(C)cc2)cc1,"inconclusive: 3.55 µM [inhibitor, full curve]"
3,COc1ccc(NC(=O)c2oc3ccccc3c2NC(=O)c2cc(=O)c3ccccc3o2)cc1,inactive
4,CCc1ccc(CN(C)C(=O)c2cc(COc3ccc(-n4cncn4)cc3)on2)cc1,"inconclusive: 35.5 µM [inhibitor, single point]"
5,O=C(Oc1c(CN2CCOCC2)cc(Cl)c2cccnc12)c1ccccc1Cl,"inconclusive: 14.1 µM [inhibitor, partial curve, poor fit]"
6,[O-]/C(=C(\C(=S)NCCN1CCOCC1)[n+]1ccccc1)c1ccc(Cl)s1,"inconclusive: 6.31 µM [inhibitor, single point]"
7,O=c1oc(Cl)c(Cl)c2ccccc12,inactive
8,C[C@H](CO)N1C[C@H](C)[C@@H](CN(C)S(=O)(=O)c2ccc(Oc3ccccc3)cc2)OCc2cnnn2CCCC1=O,inactive
9,COC(=O)C1=C(C)NC(=O)/C1=C\c1cc(C)n(-c2ccccc2)c1C,inactive
10,O=C(Nc1cccc(S(=O)(=O)N2CCCC2)c1)c1cccc(S(=O)(=O)N2CCOCC2)c1,inactive
11,CN(C)c1nc(NCc2ccccc2)nc(SCC(=O)Nc2ccccc2Cl)n1,"inconclusive: 35.5 µM [inhibitor, single point]"
12,S=c1[nH]nc(COc2ccccc2)n1/N=C/C(Cl)=C/c1ccccc1,"inconclusive: 25.1 µM [inhibitor, single point]"
13,O=C(Nc1ccccn1)c1ccc(S(=O)(=O)N2CCCCC2)cc1,"inconclusive: 6.31 µM [inhibitor, single point]"
14,COc1ccc2c(c1)C(C)(Cc1ccc(C(=O)c3ccccc3)cc1)C(=O)N2 (stereo not given),inactive
15,CCOC(=O)c1cnc2c(OC)cccc2c1N1CCN(c2ccccc2F)CC1,"inconclusive: 12.6 µM [inhibitor, partial curve, poor fit]"
16,Fc1ccc(Cn2ccc(-c3cnc(-c4ccccc4)s3)n2)cc1,"inconclusive: 35.5 µM [inhibitor, single point]"
17,CCOc1cccc2sc(=NC(=O)c3ccc(S(=O)(=O)N4CCOCC4)cc3)n(C)c12,inactive
18,COCc1cc(=O)[nH]c(Nc2nc3ccccc3o2)n1,"inconclusive: 22.4 µM [inhibitor, single point]"
19,O=C(CN(Cc1ccco1)C(=O)c1cc(=O)[nH]c2ccccc12)Nc1ccccc1Br,inactive
20,CCc1ccc(/C=N/n2c(COc3ccccc3)n[nH]c2=S)cc1,"inconclusive: 35.5 µM [inhibitor, single point]"
21,CCc1ccc(NC(=O)c2ccc(CNS(=O)(=O)c3ccc4c(c3)C(C)(C)C(=O)N4C)cc2)cc1,inactive
22,CCOc1ccc(C(=O)N/N=C/c2cc([N+](=O)[O-])cs2)cc1,inactive
23,N#Cc1c(Cl)cccc1Oc1ccc(S(=O)(=O)Nc2ccccc2)cc1,"inconclusive: 35.5 µM [inhibitor, single point]"
24,Cc1cc(C)c2c(n1)sc1c(N3CCN(CCO)CC3)ncnc12,inactive

row,Structure (SMILES),Potency
1,CC(=O)CCc1ccc(OCC(O)CNC2CCCc3ccccc32)cc1 (stereo not given),inactive
2,N#Cc1c2ccc(O)cc2n2ccccc12,"inconclusive: 35.5 µM [inhibitor, single point]"
3,O=c1[nH]c(=O)n(Cc2ccco2)c2c1C(C(F)(F)F)(C(F)(F)F)N=C(C1CCCCC1)N2,inactive
4,Cc1cccc(N2C(=O)CC(Sc3nc(C)c4c(n3)CCCC4)C2=O)c1 (stereo not given),inactive
5,CC(C)c1ccc(CC(C)C2C3=C(CCCC3=O)OC3=C2C(=O)CCC3)cc1 (stereo not given),"inconclusive: 11.2 µM [inhibitor, partial curve, poor fit]"
6,CCOC(=O)C(NS(=O)(=O)c1ccc(Br)cc1)C(C)C (stereo not given),"inconclusive: 10 µM [inhibitor, partial curve, poor fit]"
7,CC(C)(C)c1ccc(OCCNC(=S)Nc2ccccc2)cc1,active: 14.1 µM
8,Cc1cc([N+](=O)[O-])cc(/C=N\NC(=O)C2COc3ccccc3O2)c1O (stereo not given),inactive
9,CCN(CC)S(=O)(=O)c1ccc(NC(=O)c2cc(-c3cccs3)nc3ccccc23)cc1,"inconclusive: 0.112 µM [inhibitor, full curve, poor fit]"
10,CCCCCNC1=CC(=O)CC(c2ccccc2)C1 (stereo not given),"inconclusive: 6.31 µM [inhibitor, full curve, poor fit]"
11,Cc1cc(N2CCCCC2)n2ncc(-c3ccc(Cl)cc3)c2n1,inactive
12,COc1cc2c(cc1OC)CN(S(=O)(=O)c1cccs1)CC2,"inconclusive: 22.4 µM [inhibitor, single point]"
13,O=C(Nc1ccc(N2CCOCC2)c(Cl)c1)c1ccc([N+](=O)[O-])o1,active: 8.91 µM
14,O=C1/C(=C\c2ccc(Br)cc2)SC(=S)N1NS(=O)(=O)c1ccccc1,"inconclusive: 0.251 µM [inhibitor, full curve, poor fit]"
15,COc1ccc(OC)c(Nc2nc(-c3sc(NC(=O)C(C)(C)C)nc3C)cs2)c1,inactive
16,CCOC(=O)C(C)NC(=O)CCc1nnc2ccc(N3CCC(C)CC3)nn12 (stereo not given),"inconclusive: 28.2 µM [inhibitor, partial curve, poor fit]"
17,Clc1ccc(C(c2nnnn2C2CCCC2)N2CCN(c3nc4ccccc4s3)CC2)cc1 (stereo not given),inactive
18,O=C(Nc1ccccc1C(=O)N1CCN(CCO)CC1)c1cccc([N+](=O)[O-])c1,inactive
19,COc1cccc(C(=O)NCC(c2ccc3c(c2)OCO3)N2CCN(C)CC2)c1 (stereo not given),inactive
20,Cn1c(=O)n(C)c2cc(NS(=O)(=O)c3ccc(Cl)cc3)c(NCc3ccccc3)cc21,"inconclusive: 35.5 µM [inhibitor, single point]"
21,Cc1[nH]c2ccccc2c1C1(O)C(=O)Nc2ccc(Cl)cc21 (stereo not given),"inconclusive: 35.5 µM [inhibitor, single point]"
22,CC(C)(C)c1ccc(Cn2nnc3c(=O)[nH]c(C4CCN(C(=O)c5ccco5)CC4)nc32)cc1,active: 12.6 µM
23,O=C(Nc1cccc(F)c1)C1CCN(c2nc3ccccc3nc2C(F)(F)F)CC1,"inconclusive: 7.08 µM [inhibitor, partial curve, poor fit]"
24,COC(=O)c1ccc(C(=O)OC)c(NC(=O)C(C)C)c1,inactive

row,Structure (SMILES),Potency
1,Cc1cc2ccccn2c1C(=O)c1ccccc1F,inactive
2,CCn1c(CC(=O)Nc2ccc(F)cc2)nnc1SCC(=O)Nc1nncs1,inactive
3,COC(=O)C1(CC2CC(c3ccc(Cl)cc3)=NO2)CCN(C(=O)OC(C)(C)C)CC1 (stereo not given),"inconclusive: 15.8 µM [inhibitor, single point]"
4,Cc1ccc(OCC(O)Cn2c3ccccc3c3ccccc32)cc1 (stereo not given),"inconclusive: 35.5 µM [inhibitor, single point]"
5,CC(C)(C)c1ccc(S(=O)(=O)NCC(=O)Nc2ccc(-c3nc4ccccc4s3)cc2)cc1,"inconclusive: 25.1 µM [inhibitor, single point]"
6,NS(=O)(=O)c1ccc(NCc2ccccc2OCc2ccc(F)cc2)cc1,"inconclusive: 3.16 µM [inhibitor, single point]"
7,COc1cccc2c1Oc1ncccc1N(C(=O)CCC(=O)NCc1ccc(OC(C)C)cc1)C2,"inconclusive: 35.5 µM [inhibitor, single point]"
8,CCc1ccc(NC(=O)Nc2ccsc2C(=O)OC)cc1,inactive
9,Cc1ccc(C(=O)NC(=S)NCc2ccccc2)cc1,"inconclusive: 35.5 µM [inhibitor, single point]"
10,Cc1cc(OC(=O)N2CCOCC2)cc(C)c1Cl,inactive
11,CCOC(=O)C1=C(CN2CCN(c3ccc(Cl)cc3)CC2)NC(=O)NC1c1ccc(F)cc1 (stereo not given),active: 15.8 µM
12,O=C(CSCC(=O)c1ccc([N+](=O)[O-])cc1)c1ccc([N+](=O)[O-])cc1,"inconclusive: 20 µM [inhibitor, partial curve, poor fit]"
13,Cc1ccc(S(=O)(=O)N2[C@@H](c3ccc(Cl)c(Cl)c3)C(C(=O)O)=C[C@H]2C(C)(C)C)cc1,"inconclusive: 35.5 µM [inhibitor, single point]"
14,O=C(N/N=C/c1cc([N+](=O)[O-])ccc1O)c1cccc(N2CCCC2=O)c1,inactive
15,O=S(=O)(NCCc1ccccc1F)c1cccc(S(=O)(=O)N2CCOCC2)c1,"inconclusive: 25.1 µM [inhibitor, single point]"
16,CCN(CC)S(=O)(=O)c1cc(C(=O)Oc2cccc(-c3cnc4ccccc4n3)c2)ccc1Br,inactive
17,O=C(Nc1nnc(-c2ccc3c(c2)CCCC3)o1)C1COc2ccccc2O1 (stereo not given),inactive
18,Brc1cccc(-c2nnc(SCc3nc4ccccc4[nH]3)o2)c1,"inconclusive: 35.5 µM [inhibitor, single point]"
19,Cc1ccc(C)c(C(=O)OCC(=O)Nc2cccc(S(=O)(=O)N3CCCCC3)c2)c1,"inconclusive: 22.4 µM [inhibitor, single point]"
20,O=C(COC(=O)C1(c2ccccc2F)CCCC1)Nc1ncc(C(F)(F)F)cc1Cl,"inconclusive: 35.5 µM [inhibitor, single point]"
21,COc1cc(-c2cc3n(C)c(C)c(CCC(=O)NC4CCC(C)CC4)c(=O)n3n2)cc(OC)c1OC (stereo not given),inactive
22,CCOc1ccc(N(CC)S(=O)(=O)N2CCCC(C(=O)NCc3ccccc3OCC)C2)cc1 (stereo not given),"inconclusive: 11.2 µM [inhibitor, partial curve, poor fit]"
